# The whole screen tested about 310,000 compounds, of which about 2,200 (0.71%) showed an effect of 50% or more. Effects have a minus sign here. The list shows a part of the results.
# Biological target: human ether-à-go-go-related gene (hERG) potassium channel (human, UniProt Q12809)
# Assay: primary screen, population patch clamp on CHO cells stably expressing hERG
# Sequence of human ether-à-go-go-related gene (hERG) potassium channel (Q12809 whole entry, looked up): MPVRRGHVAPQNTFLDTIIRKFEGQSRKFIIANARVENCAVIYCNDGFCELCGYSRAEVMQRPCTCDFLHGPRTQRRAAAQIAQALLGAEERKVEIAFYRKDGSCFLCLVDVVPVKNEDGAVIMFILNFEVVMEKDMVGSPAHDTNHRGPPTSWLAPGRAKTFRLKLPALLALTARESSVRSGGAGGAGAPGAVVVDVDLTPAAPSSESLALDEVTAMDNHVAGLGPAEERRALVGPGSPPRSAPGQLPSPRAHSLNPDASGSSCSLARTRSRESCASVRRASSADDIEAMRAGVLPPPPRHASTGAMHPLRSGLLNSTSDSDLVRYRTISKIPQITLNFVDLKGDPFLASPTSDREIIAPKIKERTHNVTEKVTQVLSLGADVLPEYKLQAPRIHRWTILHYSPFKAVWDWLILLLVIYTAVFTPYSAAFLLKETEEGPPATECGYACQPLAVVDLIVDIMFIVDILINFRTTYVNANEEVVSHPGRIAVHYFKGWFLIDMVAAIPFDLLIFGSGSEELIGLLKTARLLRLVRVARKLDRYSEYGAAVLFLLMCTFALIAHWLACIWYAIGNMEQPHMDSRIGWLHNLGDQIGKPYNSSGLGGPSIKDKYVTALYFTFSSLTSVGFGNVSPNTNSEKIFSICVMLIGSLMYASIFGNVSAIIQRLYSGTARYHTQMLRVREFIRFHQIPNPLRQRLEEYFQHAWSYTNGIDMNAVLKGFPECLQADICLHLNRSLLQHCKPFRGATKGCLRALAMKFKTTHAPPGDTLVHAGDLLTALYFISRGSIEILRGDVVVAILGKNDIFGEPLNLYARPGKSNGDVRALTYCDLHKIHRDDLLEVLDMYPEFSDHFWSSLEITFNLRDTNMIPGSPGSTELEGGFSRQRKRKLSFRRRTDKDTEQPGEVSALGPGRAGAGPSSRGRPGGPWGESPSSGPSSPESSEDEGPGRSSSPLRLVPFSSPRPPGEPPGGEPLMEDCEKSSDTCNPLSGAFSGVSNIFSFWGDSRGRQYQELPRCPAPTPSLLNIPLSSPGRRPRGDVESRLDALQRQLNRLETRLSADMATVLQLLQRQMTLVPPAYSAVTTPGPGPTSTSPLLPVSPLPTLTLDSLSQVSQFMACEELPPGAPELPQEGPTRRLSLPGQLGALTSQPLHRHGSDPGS
row,SMILES,"hERG current change (%, negative = inhibition) at 1uM"
1,CCOC(=O)C1=C(C)N=c2s/c(=C/c3ccc(OCC(=O)O)cc3)c(=O)n2C1c1cc(OC)c(OC)c(OC)c1 (stereo not shown),20.2%
2,N#Cc1ccc(N2Cc3ccccc3C2=NC(=O)c2cccs2)cc1,4.56%
3,CC(=O)N1CCN(S(=O)(=O)c2ccc(C)cc2)C1C(C)C (stereo not shown),4.5%
4,N#Cc1c(-c2ccc([N+](=O)[O-])cc2)nc2n(c1=O)CCS2,4.72%
5,Cc1cccc(CN2CCN(Cc3cccc(-n4cccn4)c3)CC2CCO)n1 (stereo not shown),-13.6%
6,COC(=O)c1cccc(NC(=S)Nc2ccc(Cl)c(Cl)c2)c1,17.5%
7,COc1cc(CN(C)CC2CCCN(CCc3ccc(F)cc3)C2)c(Cl)cc1O (stereo not shown),2.44%
8,COc1cc(NC(=O)c2cc(C)nc3ccccc23)cc(OC)c1OC,23.7%
9,O=S(=O)(Nc1nc2cc3c(cc2nc1Cl)OCCO3)c1ccccc1,-5.58%
10,O=C(NCC(=O)N1CCN(C(=O)c2ccccc2)CC1)c1ccc(Cl)cc1Cl,5.5%
11,CCOC(=O)C1CCN(C(=O)C2CCN(C(=O)c3ccc([N+](=O)[O-])cc3)CC2)CC1,-28.2%
12,O=C(Nc1ccc2c(c1)OCCO2)C1CCCC1,9.82%
13,CC1=C(C(=O)Nc2cc(C(=O)N(C)Cc3ccccc3)ccc2C)SCCO1,15.9%
14,CCC1Sc2ccccc2N(CC(=O)NCCC(C)C)C1=O (stereo not shown),10.8%
15,CC1(C)CC(=O)C(N=Nc2cccc(S(=O)(=O)N3CCOCC3)c2)=C(O)C1,4.97%
16,Cc1cc(NC(=O)c2cccs2)ncc1NC(=O)c1cccc(F)c1,3.6%
17,O=C(NC1CCN(Cc2ccccc2)CC1)c1c(F)cccc1F,-7.73%
18,N#CCCN/N=C(/Cc1nc2ccccc2[nH]1)c1cccc(Cl)c1,14.7%
19,CSc1ccccc1NC(=O)c1cc(C2CC2)on1,-0.193%
20,CCOc1cc(C=C2C(=O)c3ccccc3C2=O)ccc1OCC(=O)Nc1ccc(C)cc1,28.2%
21,COc1ccc(S(=O)(=O)N(C)C)cc1NC(=O)CN1C(=O)NC2(CCCC2)C1=O,16.4%
22,O=C1CC(N2CCC(C(=O)N3CCCCC3)CC2)C(=O)N1 (stereo not shown),1.93%

row,SMILES,"hERG current change (%, negative = inhibition) at 1uM"
1,CC(=O)c1ccc(S(=O)(=O)N2CCCC(N(C)CCc3ccccc3)C2)cc1 (stereo not shown),-78.7%
2,COc1cc(CN2CCN(Cc3ccc(C)cc3)CC2)c([N+](=O)[O-])cc1OC.O=C(O)C(=O)O,-73.4%
3,O=[N+]([O-])c1ccc(N2CCCCCC2)c2ncccc12,6.66%
4,O=C(NC1CCN(Cc2ccccc2)CC1)c1ccc2c(c1)[nH]c(=O)n2Cc1ccc(F)cc1,6.14%
5,O=C(COC(=O)c1cc(S(=O)(=O)N2CCOCC2)ccc1F)NC1CCCCC1,5.92%
6,O=C(CNC(=O)c1ccco1)NCC(=O)OCc1c(F)cccc1Cl,1.85%
7,CCS(=O)(=O)N1CCC(C(=O)Oc2ccccc2)CC1,13.5%
8,CCC(O)(c1ccc(OC)cc1)C(CN1CCOCC1)c1ccccc1.Cl (stereo not shown),10.1%
9,CCNC(=S)N(Cc1ccc(OC)cc1)C1CC(=O)N(c2ccc(OCC)cc2)C1=O (stereo not shown),11.3%
10,CC1S/C(=C(\C#N)C(=O)NCc2ccco2)N(Cc2ccco2)C1=O (stereo not shown),8.15%
11,COc1cccc(C(=O)N2CCN(Cc3ccc4c(c3)OCO4)CC2)c1OC,0.476%
12,CN(CC(O)CN1CCOCC1)S(=O)(=O)[O-].[Na+] (stereo not shown),20.5%
13,N#CC12CCCCC1CC1CCCCC1(C#N)N2Cc1ccccn1 (stereo not shown),9.12%
14,O=C(NC1CCCC1)C(c1cccnc1)N(C(=O)c1csnn1)C1CCCC1 (stereo not shown),14.1%
15,CC1CN(CC(O)COC(c2ccc(Cl)cc2)c2ccc(Cl)cc2)CC(C)O1.Cl (stereo not shown),-2.64%
16,Cl.O=C(CSc1ncn[nH]1)Nc1ccc([N+](=O)[O-])cc1Br,6.71%
17,COc1ccc(C2=NN(S(C)(=O)=O)C(c3cccs3)C2)cc1OC (stereo not shown),14.6%
18,CCOC(=O)c1cc2c(=O)n3cccc(C)c3nc2n(CCOC)c1=NC(C)=O,8.92%
19,CC[n+]1c(/C=C(/C)SC)sc2ccccc21.COS(=O)(=O)[O-],2.44%
20,O=[N+]([O-])c1cccnc1N1CCOCC1,11.7%
21,C=C(C)c1cccc(C(C)(C)NC(=O)NCCCN2CCCC2=O)c1,13.8%

# Reference: article PMC4336329 (PLoS ONE, 2015)
